Measured values published in PubChem BioAssay AID1347073 (National Center for Advancing Translational Sciences (NCATS), 2019).
The campaign covered roughly 45,000 compounds. About 200 (0.44%) were called active. Roughly 7% stayed inconclusive and do not appear here. The call rests on the fitted dose curve; in most records, active means well fitted activation curve with a large enough effect; inconclusive means small, poorly fitted or top-dose-only effect; inactive means no such curve, though single readings can be large or run the other way. The list shows a part of the results.

test: qHTS of TDP-43 Inhibitors: NCGC Sytravon Library Screen; conditions: yeast TDP-43 toxicity rescue, BacTiter-Glo growth, 24 h; series mostly up to 46.1 µM; growth rescue (activation): at the top concentration; further: 0% is about no effect; nearly all actives have a fitted effect of over 55% in size
Outline: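 TDP-43-expressing yeast, pregrown in raffinose, seeded at OD600 0.02 in galactose medium with compound for 24 hr at 30 deg C. Growth read by BacTiter-Glo luminescence, so rescue of toxicity appears as activation.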

SMILES	growth rescue (activation)
Cc1ccc(S(=O)(=O)N2CCOCC2)cc1NC(=O)COC(=O)COc1ccccc1[N+](=O)[O-]	inactive: 1.43%
CC(=O)NC(c1ccccc1)c1nc(-c2cccc(C(C)C)c2)cs1 (stereo not given)	inactive: 10.7%
O=C(NCc1ccccc1)c1c(Cl)nc(Cl)c(Cl)c1Cl	inactive: 22.5%
Oc1ccccc1/C=N/[n+]1ccccc1	inactive: -0.347%
Cc1ccc(O)c(C(=O)c2cc(C#N)c(=O)n(Cc3ccccc3)c2)c1	inactive: 4.59%
Cc1ccc(S(=O)(=O)NC(=S)c2ccccc2)cc1	inactive: 14.5%
O=C(COC(=O)c1ccc(Br)cc1)NCC1CCCO1 (stereo not given)	inactive: 15%
COc1ccc(/C=C/C(=O)c2cccc(-n3cnnn3)c2)cc1O	inactive: -2.26%
CC(C)CN(C(=O)CSc1nn(-c2ccc(Cl)cc2)c(=S)s1)C1CCS(=O)(=O)C1 (stereo not given)	inactive: 1.99%
CC(C)=CCN1CCN(Cc2nc(C(C)C)cs2)CC1CCO (stereo not given)	inactive: -6.5%
Oc1ccc(Cl)cc1/C=C/c1ccc2cccc(O)c2n1	inactive: -93.4%
Cc1cccc(N2CCN(Cc3nc(-c4ccccc4Cl)oc3C)CC2)n1	inactive: 15.8%
COc1ccc(OC)c(NC(=O)CN2CCc3ccccc3C2)c1	inactive: 9.11%
COc1cc(C(CC(=O)Nc2cccc(C)n2)N2Cc3ccccc3C2=O)cc(OC)c1OC (stereo not given)	inactive: -8.03%
O=C(Nc1ccc(Cc2nc3ccccc3s2)cc1)c1ccncc1	inactive: 20.1%
CC(=O)c1cccc(NC(=S)Nc2ccn(Cc3cccc4ccccc34)n2)c1	inactive: 24.6%
COc1ccc(S(=O)(=O)Nc2ccccc2OC)cc1NC(=O)c1cc2ccccc2oc1=O	inactive: 0.92%
N#Cc1c(SCC(=O)Nc2ccc(C(F)(F)F)cc2)sc2c(O)cc(=O)[nH]c12	inactive: 8.69%
O=C(Cn1cc(-c2ccccn2)nn1)NS(=O)(=O)c1cccc(OC(F)F)c1	inactive: -3.67%
COc1ccc(OC)c(Nc2nc(NCc3ccco3)c3ccccc3n2)c1	inactive: 16.6%
C[C@@H]1C[C@H](O)c2cc(Cl)ccc2N1	inactive: -17.6%
COc1ccc(N=C2NN=C(c3c(C)[nH]c4ccccc34)CS2)cc1	inactive: 4.44%
O=C(Nc1cccc(S(=O)(=O)N2CCOCC2)c1)c1ccc(Cl)c([N+](=O)[O-])c1	inactive: -12.6%
O=C(COC(=O)c1cncc(Br)c1)NC1CCCCC1	inactive: -1.47%
CCN(CC)CCn1c(NCc2cccc(OC)c2OC)nc2ccccc21	inactive: 7.09%
CC1(C)O[C@H]2[C@@H](O1)[C@@H](C(=O)Nc1ccc(F)c(F)c1)O[C@@H]1OC(C)(C)O[C@@H]12	inactive: 13.7%
Cc1ccc(-c2nc3ncccc3o2)cc1NC(=O)CC(C)C	inactive: 4.85%

SMILES	growth rescue (activation)
COc1ccc(CCNC(=O)COc2ccc(S(=O)(=O)NC(C)C)cc2)cc1OC	inactive: 1.99%
C=CCNC(=O)/C(=C/c1cccc([N+](=O)[O-])c1)NC(=O)c1ccccc1	inactive: 0.704%
COc1ccc(NC(=O)C2=NN(C3CCS(=O)(=O)C3)C(=O)CC2)cc1S(N)(=O)=O (stereo not given)	inactive: 7.7%
Cc1sc(NC(=O)Cn2[nH]c(=O)c3ccccc3c2=O)nc1-c1ccccc1	inactive: 11.3%
COc1cccc(C2CC(C(F)(F)F)n3nc(C(=O)Nc4c(C)n(C)n(-c5ccccc5)c4=O)cc3N2)c1 (stereo not given)	inactive: 8.26%
CCn1c2ccccc2c2cc(CN3CCN(Cc4cc(OC)ccc4O)CC3)ccc21	inactive: -8.4%
Cc1onc(-c2c(F)cccc2Cl)c1C(=O)Nc1nccs1	inactive: 6.4%
CCN(CC)S(=O)(=O)c1ccc(C)c(NC(=O)CSc2nc3ccccc3[nH]2)c1	inactive: 4.87%
CC(=O)c1ccc(N(CC(=O)NC2CCCC2)C(=O)CNC(=O)c2cccs2)cc1	inactive: -6.19%
COc1ccc(/C=C/C(=O)NC(=S)Nc2ccc(S(N)(=O)=O)cc2)cc1	inactive: -3.06%
Cc1noc(C)c1C(=O)N1CCC1(C)C(=O)NS(=O)(=O)c1cccc(Cl)c1 (stereo not given)	inactive: -1.36%
COc1ccc(NS(=O)(=O)c2cc(N)ccc2N2CCCC2)cc1	inactive: 11.4%
Oc1c(N=Nc2ccccn2)ccc2ccccc12	inactive: -77.4%
Cc1ccc(C(=O)NCCCNc2ccccc2[N+](=O)[O-])cc1	inactive: 3.46%
Cc1nnc(NC(=O)CCS(=O)(=O)c2ccccc2)s1	inactive: -7.48%
O=C(NCc1ccc2c(c1)OCO2)c1cc(COc2c(F)cccc2F)on1	inactive: 9.37%
COC(=O)C1CCN(C(=O)NC(C)(C)C)CC1	inactive: 27.2%
CC(C)Oc1ccc(C(CCN)C2CCCCC2)cc1 (stereo not given)	inactive: 18%
CC1CCN(CC(=O)Nc2ccc(N3CCCCCC3)cc2)CC1	inactive: -8.43%
Oc1cccc2ccc(/C=C/c3c(F)cccc3Cl)nc12	inactive: 14.7%
O=C(NCCN1CCN(c2cccc(Cl)c2)CC1)C1COc2ccccc2C1 (stereo not given)	inactive: 6.32%
NS(=O)(=O)c1cccc(Nc2nc3ccccc3nc2NS(=O)(=O)c2ccc(Cl)cc2)c1	inactive: 11.9%
COc1ccc(NC(=O)Cc2nnc(SCC(=O)NC3CCCC3)n2C)cc1	inactive: 13.4%
CNC(=S)N1N=C(c2ccccc2)CC1c1ccccc1Cl (stereo not given)	inactive: 8.95%
Cc1ccnc2nc(C(=O)OCC(=O)c3c[nH]c4ccccc34)nn12	inactive: -13.1%
Cc1cccc(NC(=O)CS(=O)CC(=O)Nc2cnc3ccccc3c2)c1C (stereo not given)	inactive: -25%
O=C(NCCCNC(=O)c1cnccn1)c1ccc(Br)cc1	inactive: -17.5%

SMILES	growth rescue (activation)
Cn1nc(C(=O)NNC(=O)c2ccc(Cl)c(S(N)(=O)=O)c2)c2ccccc2c1=O	inactive: -11.9%
CC1(c2ccccc2)CC(C)(C)N(C(=O)c2cccc(Cl)c2)c2ccccc21 (stereo not given)	inactive: 0.783%
NC(=O)c1nsc(C(=O)N(Cc2cccnc2)C(C(=O)NC2CCCCC2)c2ccc(F)cc2)c1N (stereo not given)	inactive: 3.25%
O=S(=O)(Cc1ccccc1)N1CCN(Cc2ccc(Br)cc2)CC1	inactive: -1.2%
Cc1ccccc1-c1nc2ccccc2c(=O)n1/N=C/c1ccc([N+](=O)[O-])cc1	inactive: -69.8%
CC(=O)c1c(C)[nH]c(C(=O)Nc2ccc(S(=O)(=O)N(C)C)cc2)c1C	inactive: -8.32%
COc1ccc(NC(=O)c2cc(-c3ccco3)on2)cc1	inactive: -10.2%
CCCNC(=O)CN1CCN(c2cc3ccccc3c(Cl)n2)CC1	inactive: -1.16%
CC(c1ccco1)N(C(=O)c1ccccc1F)c1ccccn1 (stereo not given)	inactive: 7.17%
COc1ccc(Nc2nc3ccccc3s2)cc1	inactive: 11.6%
O=S(=O)(NC(=S)NC1CCCCC1)c1ccc(Cl)cc1	inactive: 22.9%
O=C(c1ccccc1NS(=O)(=O)c1cccc2cccnc12)N1CCOCC1	inactive: 1.19%
O=C(NC(C(=O)N/N=C/c1c2ccccc2cc2ccccc12)c1n[nH]c(=O)c2ccccc12)c1ccccc1 (stereo not given)	inactive: -6.36%
COc1cc(C(=O)NNC(=O)CNC(=O)C2CCCCC2)ccc1OC(C)C	inactive: 6.25%
O=C(Nc1ccccc1Cl)N1CCN(c2ncccn2)CC1	inactive: 21.2%
COc1cc(CN2C[C@@H](CO)O[C@@H](n3cnc4c(NC5CCCC5)ncnc43)C2)cc(OC)c1OC	inactive: 3.78%
C=CCn1c(SCc2ccc(C(=O)OC)cc2)nnc1-c1sc(N)nc1C	inactive: 14.4%
O=C(Nc1nc2ccccc2[nH]1)C1CCN(S(=O)(=O)c2cccs2)CC1	inactive: 16.2%
COc1ccc(C)cc1NC(=O)NC(C)c1c(-n2cccc2)sc(C)c1C (stereo not given)	inactive: 10.1%
CCOc1cccc(CN2CCN(Cc3ccc(C)o3)C(CCO)C2)c1O (stereo not given)	inactive: 9%
CC(=O)c1ccc(Nc2cc(C)nc3ccccc23)cc1	inactive: 9.78%
Cc1ccc(Cl)cc1NC(=O)Cn1c(=O)n(CCC(=O)NCc2ccc3c(c2)OCO3)c(=O)c2sccc21	inactive: 12.1%
NS(=O)(=O)c1ccc(CCNC(=O)c2ccc(Cl)c(S(=O)(=O)N3CCCCC3)c2)cc1	inactive: 23.3%
O=S(=O)(c1ccccc1)c1nc(-c2ccccc2Cl)oc1NCCCN1CCOCC1	inactive: -5.55%
COc1ccccc1C(=O)N/C(=C/c1ccc2c(c1)OCO2)C(=O)Nc1cccc(C(=O)O)c1	inactive: 6.26%
Cc1cc(C(=O)CN2C(=O)NC(CC(C)C)C2=O)c(C)n1C1CC1 (stereo not given)	inactive: -41.8%
Cc1ccc(Nc2c(-c3ccccc3)nc3cnccn23)cc1	inactive: 8.7%

SMILES	growth rescue (activation)
O=C(/C=C/c1ccccc1)NCCOc1ccccc1	inactive: 4.21%
COc1ccc(NC(=O)c2cc3c(s2)CCC(C)C3)cc1S(=O)(=O)N1CCOCC1 (stereo not given)	inactive: 14.4%
CC1CC(C)CN(C(=O)C(C)N2CCN(S(=O)(=O)c3ccc(Br)s3)CC2)C1 (stereo not given)	inactive: 20.8%
COc1ccc(/C(N)=N/OC(=O)COc2ccccc2Cl)cc1	inactive: -2.15%
Cc1ccc(/C=N/NC(=O)CSc2nnc(-c3ccc(Cl)cc3)n2-c2ccccc2)o1	inactive: 22.6%
O=c1[nH]c(CN2CCN(S(=O)(=O)/C=C/c3ccccc3)CC2)nc2cc(Cl)ccc12	inactive: 20%
Cn1/c(=N/NC(=O)c2ccccc2Br)sc2ccccc21	inactive: 2.38%
COc1ccc(-c2cc(-c3nnc(-c4ccncc4)o3)c3ccccc3n2)cc1	inactive: 12.4%
Cc1ccc(-c2cc(C(=O)N3CCOCC3)c3ccccc3n2)o1	inactive: 1.91%
CCN(CC)CC#CCC(O)(c1ccccc1)c1ccc(Br)cc1 (stereo not given)	inactive: -1.28%
CCc1ccc2nc(NC(=O)c3ccc(N4C(=O)CCC4=O)cc3)sc2c1	inactive: 39.3%
CC12CCCC[C@@H]1CCC1C2CCC2(C)C1CC[C@@]2(O)CNCCO (stereo not given in full)	inactive: 8.3%
O=C1CCCN1c1ccc(S(=O)(=O)N2CCCCC2)cc1	inactive: 2.8%
O=C(O)c1ccccc1NS(=O)(=O)c1ccc2c(c1)OCCO2	inactive: -3.36%
Cc1ccc(Cl)cc1NC(=O)Cn1c(=O)oc2cc(S(=O)(=O)N3CCCC3)ccc21	inactive: -4.02%
Nc1cc(N)nc(SCC(=O)NC(=O)NC2CCCC2)n1	inactive: 13.2%
O=C(NC(=S)NC1CCS(=O)(=O)C1)c1cccs1 (stereo not given)	inactive: 7.64%
O=C(Nc1ccccc1)OCc1cncs1	inactive: 5.51%
CCCC(=O)Oc1ccc(C2NC(=O)c3ccccc3O2)cc1OC (stereo not given)	inactive: 5.97%
CC(=O)Nc1c(O)nc(SCC(=O)Nc2nnc(SCc3ccccc3)s2)[nH]c1=O	inactive: -2.97%
CCSc1nnc(-c2ccccc2NC(=O)CC)c(=O)[nH]1	inactive: 2.07%
COC(=O)CC1C(=O)NCCN1Cc1cn(-c2ccc(C)cc2)nc1-c1cccc(C)c1 (stereo not given)	inactive: 27.5%
CSc1ccc(CNCC2CCCO2)cc1 (stereo not given)	inactive: -4.1%
CS(=O)(=O)c1ccc(N2CCN(c3ccccn3)CC2)c([N+](=O)[O-])c1	inactive: 3.54%
